The target in assay [1] is HA-OTULIN^Δ54 (UniProt Q96BN8). Kind of assay: co-IP; HA-OTULIN constructs and FLAG-SCRIB transiently co-expressed in HEK293T; lysis in 50 mM Tris pH 7.4, 100 mM EDTA, 150 mM NaCl, 0.5% Triton X-100; IP with anti-FLAG or anti-HA antibody and protein A/G agarose, washes with 500 mM NaCl; immunoblot.
Assay [2] deals with HA-OTULIN (WT) (UniProt Q96BN8). The description is as above.
The target in assay [3] is HA-OTULIN^C105X (UniProt Q96BN8). The assay is described as above.
Assay [4] has as its target FLAG-SCRIB (UniProt Q14160). Described as above.
Assay [5] addresses FLAG-OTULIN (transiently expressed) (UniProt Q96BN8). Kind of assay: co-IP; reciprocal co-immunoprecipitation of FLAG-OTULIN and Dvl2 constructs from transfected HEK293T cells; lysis buffer as in a3 with 4 μM MG132 added; immunoblot.

By UniProt entry, the sequences of proteins in these tests, tags left out. Where a name states a change or a piece, a line headed by the entry shows the natural chain unless it says otherwise. Residues count along the entry.
UniProt Q96BN8: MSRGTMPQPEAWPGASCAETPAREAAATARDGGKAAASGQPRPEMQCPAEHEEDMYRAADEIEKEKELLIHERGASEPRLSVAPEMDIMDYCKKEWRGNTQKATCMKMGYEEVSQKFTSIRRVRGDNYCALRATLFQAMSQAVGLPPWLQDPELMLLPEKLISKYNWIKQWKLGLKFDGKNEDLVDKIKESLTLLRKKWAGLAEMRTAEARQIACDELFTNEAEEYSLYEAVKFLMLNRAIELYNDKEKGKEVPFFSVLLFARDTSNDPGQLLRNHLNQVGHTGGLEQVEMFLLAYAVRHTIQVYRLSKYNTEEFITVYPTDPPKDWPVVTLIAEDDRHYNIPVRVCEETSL
HA-OTULIN^C105X: residues 1-105 of Q96BN8
HA-OTULIN^Δ54: residues 55-352 of Q96BN8
UniProt Q14160: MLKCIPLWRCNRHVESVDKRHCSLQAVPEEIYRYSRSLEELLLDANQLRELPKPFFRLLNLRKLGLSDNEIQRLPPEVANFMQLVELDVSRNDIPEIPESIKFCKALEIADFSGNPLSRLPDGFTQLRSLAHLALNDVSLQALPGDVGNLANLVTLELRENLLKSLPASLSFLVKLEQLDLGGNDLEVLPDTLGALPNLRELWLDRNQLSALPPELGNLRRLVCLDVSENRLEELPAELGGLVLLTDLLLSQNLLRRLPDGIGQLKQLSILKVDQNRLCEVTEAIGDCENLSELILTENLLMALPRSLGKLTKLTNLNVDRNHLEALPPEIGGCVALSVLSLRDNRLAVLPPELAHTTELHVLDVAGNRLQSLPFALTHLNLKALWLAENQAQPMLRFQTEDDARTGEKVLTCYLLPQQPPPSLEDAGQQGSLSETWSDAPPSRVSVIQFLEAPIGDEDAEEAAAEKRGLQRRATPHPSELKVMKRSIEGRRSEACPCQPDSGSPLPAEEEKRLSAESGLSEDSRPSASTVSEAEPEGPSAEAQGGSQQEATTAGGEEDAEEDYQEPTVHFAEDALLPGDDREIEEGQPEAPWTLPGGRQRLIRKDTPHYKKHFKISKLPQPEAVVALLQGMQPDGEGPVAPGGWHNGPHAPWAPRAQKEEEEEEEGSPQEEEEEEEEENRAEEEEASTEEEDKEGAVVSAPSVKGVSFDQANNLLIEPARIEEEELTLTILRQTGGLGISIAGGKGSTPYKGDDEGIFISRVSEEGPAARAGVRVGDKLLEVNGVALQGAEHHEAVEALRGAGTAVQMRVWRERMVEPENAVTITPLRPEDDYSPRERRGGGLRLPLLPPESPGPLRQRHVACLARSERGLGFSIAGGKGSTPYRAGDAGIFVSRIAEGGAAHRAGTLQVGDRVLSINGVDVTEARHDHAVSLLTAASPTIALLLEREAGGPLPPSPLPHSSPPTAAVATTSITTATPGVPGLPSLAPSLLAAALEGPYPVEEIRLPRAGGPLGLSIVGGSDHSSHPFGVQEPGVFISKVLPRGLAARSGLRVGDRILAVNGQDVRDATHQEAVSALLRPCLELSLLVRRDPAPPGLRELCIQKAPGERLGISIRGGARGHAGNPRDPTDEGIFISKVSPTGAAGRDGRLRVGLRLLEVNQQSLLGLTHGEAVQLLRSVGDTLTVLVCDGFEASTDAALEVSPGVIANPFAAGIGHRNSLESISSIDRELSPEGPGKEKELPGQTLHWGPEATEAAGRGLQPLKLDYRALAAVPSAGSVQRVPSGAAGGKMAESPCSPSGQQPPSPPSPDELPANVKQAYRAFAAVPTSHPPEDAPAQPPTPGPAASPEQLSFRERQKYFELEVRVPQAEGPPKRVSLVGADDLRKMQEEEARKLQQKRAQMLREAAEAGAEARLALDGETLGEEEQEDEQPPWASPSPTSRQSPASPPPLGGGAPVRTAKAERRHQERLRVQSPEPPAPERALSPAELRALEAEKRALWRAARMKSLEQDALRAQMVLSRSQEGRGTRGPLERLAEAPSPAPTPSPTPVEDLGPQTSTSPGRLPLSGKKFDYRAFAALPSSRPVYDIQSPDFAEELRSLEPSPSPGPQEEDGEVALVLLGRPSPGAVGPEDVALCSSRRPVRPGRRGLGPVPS

No constants are given. Whether binding was seen depends on the method and setting. In cells and extracts the contact can be indirect. Some entries that bind do so weakly or less than the wild type.

In the case of FLAG-SCRIB (from UniProt Q14160 1-1655), the binding result is given as “binds” in assay [1], “binds” in assay [2] and “no binding” in assay [3].

On to “HA-OTULIN (WT) (from UniProt Q96BN8 1-352) (enzyme)”, for which the binding result in assay [4] is “binds”.

For “HA-OTULIN^C129S (from UniProt Q96BN8 1-352) (enzyme)”, the binding entry in assay [4] is “binds”. In the case of “HA-OTULIN^W96R (from UniProt Q96BN8 1-352) (enzyme)”, the binding result in assay [4] is reported as “binds”.

B1: Dishevelled 2 (Dvl2) (protein, UniProt Q60838 1-736)
chain: MAGSSAGGGGVGETKVIYHLDEEETPYLVKIPVPAERITLGDFKSVLQRPAGAKYFFKSMDQDFGVVKEEISDDNARLPCFNGRVVSWLVSSDTPQPEVAPPAHESRTELVPPPPPLPPLPPERTSGIGDSRPPSFHPNVSSSHENLEPETETESVVSLRRDRPRRRDSSEHGAGGHRPGGPSRLERHLAGYESSSTLMTSELESTSLGDSDEDDTMSRFSSSTEQSSASRLLKRHRRRRKQRPPRMERTSSFSSVTDSTMSLNIITVTLNMEKYNFLGISIVGQSNERGDGGIYIGSIMKGGAVAADGRIEPGDMLLQVNDMNFENMSNDDAVRVLRDIVHKPGPIVLTVAKCWDPSPQAYFTLPRNEPIQPIDPAAWVSHSAALTGAFPAYPGSSSMSTITSGSSLPDGCEGRGLSVHMDMASVTKAMAAPESGLEVRDRMWLKITIPNAFLGSDVVDWLYHHVEGFPERREARKYASGLLKAGLIRHTVNKITFSEQCYYVFGDLSGGCESYLVNLSLNDNDGSSGASDQDTLAPLPGATPWPLLPTFSYQYPAPHPYSPQPPPYHELSSYTYGGGSASSQHSEGSRSSGSTRSDGGAGRTGRPEERAPESKSGSGSESELSSRGGSLRRGGEPGGTGDGGPPPSRGSTGAPPNLRALPGLHPYGAPSGMALPYNPMMVVMMPPPPPPVSTAVQPPGAPPVRDLGSVPPELTASRQSFHMAMGNPSEFFVDVM
With B1, the binding entry in assay [5] was “binds”.

Values taken from paper PMC10445738.
